# The other results are listed elsewhere or left out.
# System: HSkMC (human skeletal muscle cells)
# Assay: cytotoxicity call (relative viability < 0.9)
# Conditions: 10 µM
row,SMILES,cytotoxicity call
1,O=C(CNC(=O)c1ccc(Cl)cc1)NO,inactive
2,C[C@@H]1CN([C@@H](C)CO)C(=O)c2cc(NC(=O)Nc3ccc4c(c3)OCO4)ccc2O[C@@H]1CN(C)Cc1ccc(C(=O)Nc2ccccc2N)cc1,inactive
3,COc1ccc([C@H](O)[C@H](CCO)OC)cc1O,inactive
4,CC(=O)OCC(=O)C1(O)CCC2C3CCC4=CC(=O)C=CC4(C)C3(F)C(O)CC21C (centres undefined),inactive
5,C[C@@H]1CCCCO[C@@H](CN(C)C(=O)Nc2ccc(F)cc2)[C@H](C)CN([C@H](C)CO)C(=O)c2cc(NS(=O)(=O)c3cccs3)ccc2O1,inactive
6,Cn1cnc(S(=O)(=O)N2C[C@H](O)COC[C@H]3O[C@@H](CC(=O)N4CCN(c5ccccc5)CC4)CC[C@@H]32)c1,inactive
7,CC(=O)N[C@H]1[C@H](O/N=[N+](\[O-])N2CCCC2)O[C@H](CO)[C@@H](O)[C@@H]1O,inactive
8,CO[C@H]1CN(C)C(=O)c2cc(NS(C)(=O)=O)ccc2OC[C@H](C)N(S(C)(=O)=O)C[C@H]1C,inactive
9,O=C(N[C@@H]1CC[C@H](CCNS(=O)(=O)c2ccc(F)cc2)O[C@H]1CO)C1CC1,inactive
10,CC(C)NC(=O)N(C)C[C@H]1Oc2ccc(NS(=O)(=O)c3ccc(F)cc3)cc2CC(=O)N([C@@H](C)CO)C[C@@H]1C,inactive
11,Cc1noc(C)c1NC(=O)Nc1ccc2c(c1)C(=O)N([C@@H](C)CO)C[C@@H](C)[C@H](CN(C)CC1CC1)OCCCC[C@@H](C)O2,inactive
12,C[C@@H]1CN([C@H](C)CO)C(=O)CCCn2nncc2CO[C@@H]1CN(C)C(=O)C1CC1,inactive
13,C[C@H](CO)N1C[C@H](C)[C@@H](CN(C)Cc2cccc3c2OCCCO3)OCc2ccccc2-c2c(n(C)c3ccccc23)C1=O,inactive
14,Clc1nccc2ccccc12,inactive
15,COc1ccc(COC[C@]23N=C4SCc5ccccc5C(=O)N4[C@H](c4ccccc4O2)[C@H]3COC(=O)c2ccccc2)cc1,inactive
16,C[C@H]1CN([C@@H](C)CO)C(=O)c2cccc(NC(=O)c3ccc(-c4nccs4)cc3)c2O[C@@H]1CN(C)Cc1ccccc1,inactive
17,CC(C)NC(=O)Nc1ccc2c(c1)CC(=O)N([C@H](C)CO)C[C@@H](C)[C@H](CN(C)Cc1ccc(C(=O)O)cc1)O2,inactive
18,C[C@H]1CN([C@@H](C)CO)C(=O)c2cccc(NC(=O)c3cnccn3)c2O[C@@H]1CN(C)S(=O)(=O)c1cccs1,inactive
19,C[C@H](CO)N1C[C@H](C)[C@@H](CN(C)Cc2ccccc2C(F)(F)F)OCc2ccccc2-c2c(n(C)c3ccccc23)C1=O,active
20,CN(C)C(=O)C[C@@H]1CC[C@H](NC(=O)C2CCOCC2)[C@H](CO)O1,inactive
21,Cc1ccc(S(=O)(=O)Nc2ccc3c(c2)C(=O)N([C@@H](C)CO)C[C@H](C)[C@H](CN(C)S(=O)(=O)c2ccccc2)O3)cc1,inactive
22,Cc1ccc(S(=O)(=O)Nc2ccc3c(c2)C(=O)N([C@H](C)CO)C[C@@H](C)[C@@H](CN(C)C(=O)Nc2cccc4ccccc24)OCCCC[C@@H](C)O3)cc1,inactive
23,C[C@@H]1CCCCO[C@@H](CN(C)Cc2ccc(Cl)c(Cl)c2)[C@H](C)CN([C@H](C)CO)C(=O)c2cc(NS(C)(=O)=O)ccc2O1,inactive
24,CC(C)NC(=O)Nc1ccc2c(c1)C(=O)N([C@H](C)CO)C[C@@H](C)[C@H](CN(C)C(=O)NC1CCCCC1)O2,inactive
25,C[C@H](CO)N1C[C@H](C)[C@@H](CN(C)C(=O)Nc2ccc(F)cc2)OCCCC[C@H](C)Oc2ccc(NC(=O)Nc3cccc4ccccc34)cc2C1=O,inactive
26,COc1ccc(-c2cnc3c(c2)C(=O)N([C@@H](C)CO)C[C@H](C)[C@@H](CN(C)C(=O)Cc2cccnc2)O3)cc1,inactive
27,C[C@H]1NC(=O)COC12CCN(C(=O)c1cnccn1)CC2,inactive
28,CC(=C(CCOP(=O)(O)O)SC(=O)c1ccccc1)N(C=O)Cc1cnc(C)nc1N,inactive
29,COc1ccccc1S(=O)(=O)N(C)C[C@H]1OCc2cnnn2CCCC(=O)N([C@@H](C)CO)C[C@H]1C,inactive

# System: HepG2
# Assay: cytotoxicity call (relative viability < 0.9)
# Conditions: 10 µM
row,SMILES,cytotoxicity call
1,C[C@@H]1CN([C@@H](C)CO)C(=O)c2cc(C#CC3(O)CCCC3)cnc2O[C@H]1CN(C)C(=O)Cc1ccncc1,inactive
2,C[C@H](O)C#Cc1ccc2c(c1)O[C@@H](CN(C)C(=O)Nc1ccccc1)[C@H](C)CN([C@H](C)CO)S2(=O)=O,inactive
3,COc1ccc(S(=O)(=O)N(C)C[C@@H]2Oc3ccc(NC(=O)C4CC4)cc3CC(=O)N([C@H](C)CO)C[C@@H]2C)cc1,inactive
4,COc1ccc(NC(=O)N(C)C[C@H]2Oc3ccc(NC(=O)Cn4cnnn4)cc3CC(=O)N([C@@H](C)CO)C[C@H]2C)cc1,inactive
5,C[C@H](CO)N1C[C@H](C)[C@@H](CN(C)S(=O)(=O)c2cccs2)Oc2c(NS(C)(=O)=O)cccc2C1=O,inactive
6,CC(=O)N(C)C[C@@H]1Oc2ncc(C#C[C@H](C)O)cc2C(=O)N([C@H](C)CO)C[C@@H]1C,inactive
7,COc1ccc(CN(C)C[C@H]2OCCCC[C@H](C)Oc3ccc(NC(=O)c4ccccc4)cc3C(=O)N([C@H](C)CO)C[C@H]2C)cc1,inactive
8,C[C@@H]1CN([C@@H](C)CO)S(=O)(=O)c2ccc(-c3ccc(F)cc3)cc2O[C@@H]1CN(C)C(=O)C1CCOCC1,inactive
9,CCCN1C[C@@H](C)[C@H](OC)CN(C)C(=O)c2ccc(NS(=O)(=O)c3cn(C)cn3)cc2OC[C@@H]1C,inactive
10,C[C@@H]1CN([C@H](C)CO)C(=O)c2cc(NC(=O)CCN3CCOCC3)ccc2O[C@H]1CN(C)Cc1ccccc1,inactive
11,C[C@@H]1CN([C@H](C)CO)C(=O)c2cccc(NC(=O)Nc3ccc(C(F)(F)F)cc3)c2O[C@@H]1CN(C)S(C)(=O)=O,inactive
12,O=C(CNC(=O)c1ccc(Cl)cc1)NO,inactive
13,C[C@@H]1CN([C@@H](C)CO)C(=O)c2cc(NC(=O)Nc3ccc4c(c3)OCO4)ccc2O[C@@H]1CN(C)Cc1ccc(C(=O)Nc2ccccc2N)cc1,inactive
14,COc1ccc([C@H](O)[C@H](CCO)OC)cc1O,inactive
15,CC(=O)OCC(=O)C1(O)CCC2C3CCC4=CC(=O)C=CC4(C)C3(F)C(O)CC21C (centres undefined),inactive
16,C[C@@H]1CCCCO[C@@H](CN(C)C(=O)Nc2ccc(F)cc2)[C@H](C)CN([C@H](C)CO)C(=O)c2cc(NS(=O)(=O)c3cccs3)ccc2O1,inactive
17,Cn1cnc(S(=O)(=O)N2C[C@H](O)COC[C@H]3O[C@@H](CC(=O)N4CCN(c5ccccc5)CC4)CC[C@@H]32)c1,inactive
18,CC(=O)N[C@H]1[C@H](O/N=[N+](\[O-])N2CCCC2)O[C@H](CO)[C@@H](O)[C@@H]1O,inactive
19,CO[C@H]1CN(C)C(=O)c2cc(NS(C)(=O)=O)ccc2OC[C@H](C)N(S(C)(=O)=O)C[C@H]1C,inactive
20,O=C(N[C@@H]1CC[C@H](CCNS(=O)(=O)c2ccc(F)cc2)O[C@H]1CO)C1CC1,inactive

row,SMILES,cytotoxicity call
1,CC(C)NC(=O)N(C)C[C@H]1Oc2ccc(NS(=O)(=O)c3ccc(F)cc3)cc2CC(=O)N([C@@H](C)CO)C[C@@H]1C,inactive
2,Cc1noc(C)c1NC(=O)Nc1ccc2c(c1)C(=O)N([C@@H](C)CO)C[C@@H](C)[C@H](CN(C)CC1CC1)OCCCC[C@@H](C)O2,inactive
3,C[C@@H]1CN([C@H](C)CO)C(=O)CCCn2nncc2CO[C@@H]1CN(C)C(=O)C1CC1,inactive
4,C[C@H](CO)N1C[C@H](C)[C@@H](CN(C)Cc2cccc3c2OCCCO3)OCc2ccccc2-c2c(n(C)c3ccccc23)C1=O,inactive
5,Clc1nccc2ccccc12,inactive
6,COc1ccc(COC[C@]23N=C4SCc5ccccc5C(=O)N4[C@H](c4ccccc4O2)[C@H]3COC(=O)c2ccccc2)cc1,inactive
7,C[C@H]1CN([C@@H](C)CO)C(=O)c2cccc(NC(=O)c3ccc(-c4nccs4)cc3)c2O[C@@H]1CN(C)Cc1ccccc1,inactive
8,CC(C)NC(=O)Nc1ccc2c(c1)CC(=O)N([C@H](C)CO)C[C@@H](C)[C@H](CN(C)Cc1ccc(C(=O)O)cc1)O2,inactive
9,C[C@H]1CN([C@@H](C)CO)C(=O)c2cccc(NC(=O)c3cnccn3)c2O[C@@H]1CN(C)S(=O)(=O)c1cccs1,inactive
10,C[C@H](CO)N1C[C@H](C)[C@@H](CN(C)Cc2ccccc2C(F)(F)F)OCc2ccccc2-c2c(n(C)c3ccccc23)C1=O,inactive
11,CN(C)C(=O)C[C@@H]1CC[C@H](NC(=O)C2CCOCC2)[C@H](CO)O1,inactive
12,Cc1ccc(S(=O)(=O)Nc2ccc3c(c2)C(=O)N([C@@H](C)CO)C[C@H](C)[C@H](CN(C)S(=O)(=O)c2ccccc2)O3)cc1,inactive
13,Cc1ccc(S(=O)(=O)Nc2ccc3c(c2)C(=O)N([C@H](C)CO)C[C@@H](C)[C@@H](CN(C)C(=O)Nc2cccc4ccccc24)OCCCC[C@@H](C)O3)cc1,inactive
14,C[C@@H]1CCCCO[C@@H](CN(C)Cc2ccc(Cl)c(Cl)c2)[C@H](C)CN([C@H](C)CO)C(=O)c2cc(NS(C)(=O)=O)ccc2O1,inactive
15,CC(C)NC(=O)Nc1ccc2c(c1)C(=O)N([C@H](C)CO)C[C@@H](C)[C@H](CN(C)C(=O)NC1CCCCC1)O2,inactive
16,C[C@H](CO)N1C[C@H](C)[C@@H](CN(C)C(=O)Nc2ccc(F)cc2)OCCCC[C@H](C)Oc2ccc(NC(=O)Nc3cccc4ccccc34)cc2C1=O,inactive
17,COc1ccc(-c2cnc3c(c2)C(=O)N([C@@H](C)CO)C[C@H](C)[C@@H](CN(C)C(=O)Cc2cccnc2)O3)cc1,inactive
18,C[C@H]1NC(=O)COC12CCN(C(=O)c1cnccn1)CC2,inactive
19,CC(=C(CCOP(=O)(O)O)SC(=O)c1ccccc1)N(C=O)Cc1cnc(C)nc1N,inactive
20,COc1ccccc1S(=O)(=O)N(C)C[C@H]1OCc2cnnn2CCCC(=O)N([C@@H](C)CO)C[C@H]1C,inactive
